One assay concerns OVCAR4. As to the kind of experiment: log2 surviving fraction (library drug vs vehicle, or drug + carboplatin vs carboplatin alone; relative to plate median); ovarian cancer lines: OVCAR4 is platinum-sensitive and Ov4Carbo platinum-resistant; higher = more cell survival. The settings on record: library drug concentration 10 µM, 7 days.
The next assay deals with Ov4Carbo. The assay is described as above. The settings on record: library drug concentration 10 µM, 7 days.

This is an account of results in the supplement of paper PMC8047034.

Molecules are shown by their SMILES. Structures can show the parent of a compound that is named as a salt. This is one part of the list. Repeats are few or missing, and single values can be far off.

Turning to `COc1cc(C(C)=O)ccc1OCCCN1CCC(c2noc3cc(F)ccc23)CC1` [Iloperidone (Fanapt)], the log2 surviving fraction in the assay with OVCAR4 (carboplatin co-treatment 0 µM) was 0.371; in the assay on OVCAR4 (carboplatin co-treatment 5 µM), 0.184; in the assay on Ov4Carbo (carboplatin co-treatment 0 µM) it was 0.133; with Ov4Carbo (carboplatin co-treatment 5 µM), -0.0354.

Consider `CCOC(=O)C1=C(C)NC(C)=C(C(=O)OC)C1c1cccc([N+](=O)[O-])c1` (stereo unspecified) [Nitrendipine], for which the log2 surviving fraction in the assay with OVCAR4 (carboplatin co-treatment 0 µM) was -0.63; in the assay with OVCAR4 (carboplatin co-treatment 5 µM), -0.0158; in the assay on Ov4Carbo (carboplatin co-treatment 0 µM), 0.31; in the assay with Ov4Carbo (carboplatin co-treatment 5 µM), -0.104.

Take `CC(C(=O)O)c1cccc(Oc2ccccc2)c1` (stereo unspecified) [Fenoprofen calcium]: the log2 surviving fraction is 0.956 with OVCAR4 (carboplatin co-treatment 0 µM), 1.13 in the assay with OVCAR4 (carboplatin co-treatment 5 µM), 0.916 in the assay on Ov4Carbo (carboplatin co-treatment 0 µM) and -1.19 in the assay on Ov4Carbo (carboplatin co-treatment 5 µM).

With `CC(=O)OC1CN2CCC1CC2` (stereo unspecified) [Aceclidine HCl], the log2 surviving fraction is 1.19 in the assay with OVCAR4 (carboplatin co-treatment 0 µM), 0.278 with OVCAR4 (carboplatin co-treatment 5 µM), 1.25 in the assay on Ov4Carbo (carboplatin co-treatment 0 µM) and 1.16 in the assay on Ov4Carbo (carboplatin co-treatment 5 µM).

On to `COc1ccc(C(CN(C)C)C2(O)CCCCC2)cc1` (stereo unspecified) [Venlafaxine], for which the log2 surviving fraction in the assay on OVCAR4 (carboplatin co-treatment 0 µM) is -3.37; in the assay on OVCAR4 (carboplatin co-treatment 5 µM), -0.301; in the assay on Ov4Carbo (carboplatin co-treatment 0 µM), -7.43; in the assay with Ov4Carbo (carboplatin co-treatment 5 µM) it was 0.587.

For the molecule `N[C@@H]1CONC1=O` [D-Cycloserine], the log2 surviving fraction in the assay on OVCAR4 (carboplatin co-treatment 0 µM) was determined as 0.0441; in the assay on OVCAR4 (carboplatin co-treatment 5 µM), 0.921; with Ov4Carbo (carboplatin co-treatment 0 µM), 0.909; in the assay on Ov4Carbo (carboplatin co-treatment 5 µM), 0.667.

As to `CCCCOc1ccc(C(=O)CCN2CCCCC2)cc1` [Dyclonine HCl], the log2 surviving fraction in the assay on OVCAR4 (carboplatin co-treatment 0 µM) was 0.133; in the assay with OVCAR4 (carboplatin co-treatment 5 µM), -0.00631; in the assay on Ov4Carbo (carboplatin co-treatment 0 µM), -0.272; in the assay with Ov4Carbo (carboplatin co-treatment 5 µM), 0.173.

As for `Cn1c(=O)c2c(ncn2CC2OCCO2)n(C)c1=O` [Doxofylline], the log2 surviving fraction with OVCAR4 (carboplatin co-treatment 0 µM) is -0.349; in the assay with OVCAR4 (carboplatin co-treatment 5 µM), 0.714; in the assay with Ov4Carbo (carboplatin co-treatment 0 µM) it was 0.652; with Ov4Carbo (carboplatin co-treatment 5 µM), 0.712.

As for `CC[C@@H](CO)NCCN[C@@H](CC)CO` [Ethambutol HCl], the log2 surviving fraction in the assay on OVCAR4 (carboplatin co-treatment 0 µM) was -0.378; in the assay with OVCAR4 (carboplatin co-treatment 5 µM) it was -1.14; in the assay with Ov4Carbo (carboplatin co-treatment 0 µM), 1.19; with Ov4Carbo (carboplatin co-treatment 5 µM), 0.594.

With `CC(=O)OCC(=O)[C@H]1CC[C@H]2[C@@H]3CCC4=CC(=O)CC[C@]4(C)[C@H]3CC[C@]12C` [Deoxycorticosterone acetate], the log2 surviving fraction in the assay on OVCAR4 (carboplatin co-treatment 0 µM) was found to be 1.21; in the assay with OVCAR4 (carboplatin co-treatment 5 µM), 1.03; in the assay with Ov4Carbo (carboplatin co-treatment 0 µM), 0.323; with Ov4Carbo (carboplatin co-treatment 5 µM), 1.24.

As to `Cc1cn([C@H]2C[C@H](N=[N+]=[N-])[C@@H](CO)O2)c(=O)[nH]c1=O` [Zidovudine (Retrovir)], the log2 surviving fraction in the assay on OVCAR4 (carboplatin co-treatment 0 µM) was -0.47; in the assay with OVCAR4 (carboplatin co-treatment 5 µM), -0.315; in the assay on Ov4Carbo (carboplatin co-treatment 0 µM) it was -0.665; in the assay on Ov4Carbo (carboplatin co-treatment 5 µM), -1.44.

Turning to `CN(C)[C@@H]1C(O)=C(C(N)=O)C(=O)[C@@]2(O)C(O)=C3C(=O)c4c(O)ccc(Cl)c4[C@@](C)(O)[C@H]3C[C@@H]12` [Chlortetracycline HCl], the log2 surviving fraction in the assay with OVCAR4 (carboplatin co-treatment 0 µM) came out at 0.0868; in the assay with OVCAR4 (carboplatin co-treatment 5 µM), 0.681; in the assay on Ov4Carbo (carboplatin co-treatment 0 µM) it was 0.152; in the assay on Ov4Carbo (carboplatin co-treatment 5 µM), 0.139.

In the case of `Cc1cccc(C)c1OCC(C)N` (stereo unspecified) [Mexiletine HCl], the log2 surviving fraction in the assay on OVCAR4 (carboplatin co-treatment 0 µM) was determined as 0.813; in the assay on OVCAR4 (carboplatin co-treatment 5 µM), 0.34; in the assay on Ov4Carbo (carboplatin co-treatment 0 µM), 0.844; in the assay with Ov4Carbo (carboplatin co-treatment 5 µM), 0.642.

For `CCS(=O)(=O)CCn1c([N+](=O)[O-])cnc1C` [tinidazole], the log2 surviving fraction with OVCAR4 (carboplatin co-treatment 0 µM) is 0.0634; in the assay with OVCAR4 (carboplatin co-treatment 5 µM) it was -0.285; with Ov4Carbo (carboplatin co-treatment 0 µM) it was -0.859; with Ov4Carbo (carboplatin co-treatment 5 µM) it was -1.1.

Regarding `CC(N)C12CC3CC(CC(C3)C1)C2` (stereo unspecified) [Rimantadine (Flumadine)], the log2 surviving fraction in the assay on OVCAR4 (carboplatin co-treatment 0 µM) is 0.028; with OVCAR4 (carboplatin co-treatment 5 µM), -0.489; with Ov4Carbo (carboplatin co-treatment 0 µM) it was -1.25; in the assay on Ov4Carbo (carboplatin co-treatment 5 µM), -0.431.

As to `Cc1cn([C@H]2C=C[C@@H](CO)O2)c(=O)[nH]c1=O` [Stavudine], the log2 surviving fraction in the assay with OVCAR4 (carboplatin co-treatment 0 µM) was determined as 0.78; in the assay on OVCAR4 (carboplatin co-treatment 5 µM) it was 0.169; in the assay on Ov4Carbo (carboplatin co-treatment 0 µM), 0.396; with Ov4Carbo (carboplatin co-treatment 5 µM), 0.71.

As for `N[C@H](Cc1ccccc1)C(=O)O` [D-Phenylalanine], the log2 surviving fraction was found to be 0.0214 in the assay with OVCAR4 (carboplatin co-treatment 0 µM), 0.613 with OVCAR4 (carboplatin co-treatment 5 µM), 0.387 with Ov4Carbo (carboplatin co-treatment 0 µM) and 0.613 in the assay with Ov4Carbo (carboplatin co-treatment 5 µM).

Turning to `CO[C@H]1O[C@@H]2O[C@@]3(C)CC[C@H]4[C@H](C)CC[C@@H]([C@H]1C)[C@@]24OO3` [Artemether (SM-224)], the log2 surviving fraction in the assay with OVCAR4 (carboplatin co-treatment 0 µM) is -1.17; with OVCAR4 (carboplatin co-treatment 5 µM), -0.0348; in the assay on Ov4Carbo (carboplatin co-treatment 0 µM), -0.273; in the assay on Ov4Carbo (carboplatin co-treatment 5 µM) it was -0.501.

For the molecule `C/C(O)=C(\C#N)C(=O)Nc1ccc(C(F)(F)F)cc1` [Teriflunomide], the log2 surviving fraction with OVCAR4 (carboplatin co-treatment 0 µM) is -0.599; with OVCAR4 (carboplatin co-treatment 5 µM), -0.778; in the assay on Ov4Carbo (carboplatin co-treatment 0 µM), 0.417; in the assay on Ov4Carbo (carboplatin co-treatment 5 µM) it was 1.01.

As for `Cc1cc(=O)[nH]c(=S)[nH]1` [Methylthiouracil], the log2 surviving fraction in the assay with OVCAR4 (carboplatin co-treatment 0 µM) is 0.35; in the assay on OVCAR4 (carboplatin co-treatment 5 µM), 0.177; with Ov4Carbo (carboplatin co-treatment 0 µM) it was 0.0473; in the assay with Ov4Carbo (carboplatin co-treatment 5 µM), -0.22.

Consider `CC(C(=O)O)c1cccc(C(=O)c2ccccc2)c1` (stereo unspecified) [Ketoprofen (Actron)], for which the log2 surviving fraction in the assay with OVCAR4 (carboplatin co-treatment 0 µM) was 1.76; in the assay on OVCAR4 (carboplatin co-treatment 5 µM) it was 0.681; with Ov4Carbo (carboplatin co-treatment 0 µM), -1.48; with Ov4Carbo (carboplatin co-treatment 5 µM) it was 0.418.

As to `COc1ccc(OC)c(C(O)C(C)N)c1` (stereo unspecified) [Methoxamine HCl], the log2 surviving fraction in the assay on OVCAR4 (carboplatin co-treatment 0 µM) is 0.223; in the assay on OVCAR4 (carboplatin co-treatment 5 µM) it was 0.38; with Ov4Carbo (carboplatin co-treatment 0 µM), -0.0332; in the assay on Ov4Carbo (carboplatin co-treatment 5 µM) it was -0.833.

As to `O=C1NC(=O)C(c2ccccc2)(c2ccccc2)N1` [Phenytoin (Lepitoin)], the log2 surviving fraction was 0.22 in the assay with OVCAR4 (carboplatin co-treatment 0 µM), 0.234 in the assay on OVCAR4 (carboplatin co-treatment 5 µM), 0.245 in the assay with Ov4Carbo (carboplatin co-treatment 0 µM) and -0.00211 with Ov4Carbo (carboplatin co-treatment 5 µM).

On to `CCn1cc(C(=O)O)c(=O)c2ccc(C)nc21` [Nalidixic acid (NegGram)], for which the log2 surviving fraction was -0.344 in the assay with OVCAR4 (carboplatin co-treatment 0 µM), 0.493 in the assay on OVCAR4 (carboplatin co-treatment 5 µM), -0.188 in the assay on Ov4Carbo (carboplatin co-treatment 0 µM) and 0.636 in the assay with Ov4Carbo (carboplatin co-treatment 5 µM).

Turning to `CCN(C)C(=O)Oc1cccc([C@H](C)N(C)C)c1` [Rivastigmine tartrate (Exelon)], the log2 surviving fraction was 0.757 in the assay on OVCAR4 (carboplatin co-treatment 0 µM), -0.268 in the assay with OVCAR4 (carboplatin co-treatment 5 µM), 1.6 in the assay on Ov4Carbo (carboplatin co-treatment 0 µM) and -0.0281 with Ov4Carbo (carboplatin co-treatment 5 µM).

Take `COc1ccc(CNc2nc(N3CCC[C@H]3CO)ncc2C(=O)NCc2ncccn2)cc1Cl` [Avanafil]: the log2 surviving fraction in the assay with OVCAR4 (carboplatin co-treatment 0 µM) was -0.698; in the assay with OVCAR4 (carboplatin co-treatment 5 µM), 0.377; in the assay with Ov4Carbo (carboplatin co-treatment 0 µM), -0.358; in the assay on Ov4Carbo (carboplatin co-treatment 5 µM), -0.168.

For the molecule `CNC[C@H](O)c1cccc(O)c1` [Phenylephrine HCl], the log2 surviving fraction in the assay with OVCAR4 (carboplatin co-treatment 0 µM) amounted to 0.0495; in the assay with OVCAR4 (carboplatin co-treatment 5 µM), 0.367; in the assay with Ov4Carbo (carboplatin co-treatment 0 µM) it was 1.51; in the assay with Ov4Carbo (carboplatin co-treatment 5 µM), 0.816.

Take `COC(=O)C1=C(C)NC(C)=C(C(=O)OC)C1c1ccccc1[N+](=O)[O-]` [Nifedipine (Adalat)]: the log2 surviving fraction is 0.662 with OVCAR4 (carboplatin co-treatment 0 µM), 0.435 with OVCAR4 (carboplatin co-treatment 5 µM), -0.0166 with Ov4Carbo (carboplatin co-treatment 0 µM) and 0.736 in the assay on Ov4Carbo (carboplatin co-treatment 5 µM).

For `OCCN1C[C@H](O)[C@@H](O)[C@H](O)[C@H]1CO` [Miglitol (Glyset)], the log2 surviving fraction is -0.00949 in the assay on OVCAR4 (carboplatin co-treatment 0 µM), 0.272 in the assay on OVCAR4 (carboplatin co-treatment 5 µM), -0.091 in the assay on Ov4Carbo (carboplatin co-treatment 0 µM) and 0.386 with Ov4Carbo (carboplatin co-treatment 5 µM).
